Paper PMC4336329 (PLoS ONE, 2015)
The whole screen tested about 310,000 compounds, of which about 14,000 (4.5%) showed an effect of 50% or more. The effect is printed as a negative number. The list shows a part of the results.

target: human ether-à-go-go-related gene (hERG) potassium channel (human, UniProt Q12809); assay: primary screen, population patch clamp on CHO cells stably expressing hERG
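Also: peak tail current of the secondary pulse compared with the same well before compound.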

human ether-à-go-go-related gene (hERG) potassium channel, sequence (Q12809 whole entry, looked up): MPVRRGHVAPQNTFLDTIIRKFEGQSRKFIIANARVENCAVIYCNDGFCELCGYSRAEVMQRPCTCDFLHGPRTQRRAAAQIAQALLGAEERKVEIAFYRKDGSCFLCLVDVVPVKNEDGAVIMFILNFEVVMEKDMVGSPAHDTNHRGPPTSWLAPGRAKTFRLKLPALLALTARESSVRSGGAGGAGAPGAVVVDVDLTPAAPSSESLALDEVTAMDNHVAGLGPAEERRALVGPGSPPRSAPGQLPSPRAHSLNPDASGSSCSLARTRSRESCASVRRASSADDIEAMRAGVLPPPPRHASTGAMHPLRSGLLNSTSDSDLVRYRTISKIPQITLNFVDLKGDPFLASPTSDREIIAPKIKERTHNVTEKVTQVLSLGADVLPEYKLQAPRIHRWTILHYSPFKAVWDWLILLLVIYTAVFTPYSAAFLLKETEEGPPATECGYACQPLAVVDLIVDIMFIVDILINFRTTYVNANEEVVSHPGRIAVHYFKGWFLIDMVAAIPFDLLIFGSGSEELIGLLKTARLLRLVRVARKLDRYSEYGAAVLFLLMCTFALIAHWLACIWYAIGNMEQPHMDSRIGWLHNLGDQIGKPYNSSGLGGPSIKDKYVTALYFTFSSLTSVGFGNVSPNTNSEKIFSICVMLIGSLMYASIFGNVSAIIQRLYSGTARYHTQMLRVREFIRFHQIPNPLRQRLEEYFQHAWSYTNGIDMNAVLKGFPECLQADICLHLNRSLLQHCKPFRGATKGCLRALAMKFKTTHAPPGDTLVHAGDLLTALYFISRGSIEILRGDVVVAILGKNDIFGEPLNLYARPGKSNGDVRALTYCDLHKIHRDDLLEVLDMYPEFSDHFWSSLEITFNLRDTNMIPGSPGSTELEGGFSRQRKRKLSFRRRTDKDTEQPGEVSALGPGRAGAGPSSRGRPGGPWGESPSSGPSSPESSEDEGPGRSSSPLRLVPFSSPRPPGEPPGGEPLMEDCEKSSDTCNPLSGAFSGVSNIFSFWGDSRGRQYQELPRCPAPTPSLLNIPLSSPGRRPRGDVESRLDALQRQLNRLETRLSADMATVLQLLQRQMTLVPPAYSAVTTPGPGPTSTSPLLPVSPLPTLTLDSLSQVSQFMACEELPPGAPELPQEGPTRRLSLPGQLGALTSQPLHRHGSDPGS

In order of rising “hERG current change (%, negative = inhibition) at 10uM” value:
1. CCOC(=O)c1cnc2c(C)c(Cl)ccc2c1NCCCN1CCOCC1  -49.2%
2. CC(C)N(Cc1ccccc1)C(=O)C1CCN(c2ncnc3c2nc2n3CCCCC2)CC1  -45.2%
3. CN1CCC(=NNC(=O)CN(c2ccc([N+](=O)[O-])cc2)S(=O)(=O)c2ccccc2)CC1  -39.7%
4. CSc1ccc(CN(C)CC(=O)Nc2ccccc2C(=O)NC2CC2)cc1  -39%
5. NC(=O)C1(N2CCCCC2)CCN(c2nc(-c3ccccc3)cs2)CC1  -38.3%
6. CCOc1ccc(NS(=O)(=O)c2ccc(C(=O)NCC(c3ccc(OC)cc3)N3CCCC3)cc2)cc1 (centres unmarked)  -34%
7. COc1ccccc1C1CC(c2ccc(Br)cc2)=NN1C(=O)c1cccnc1 (centres unmarked)  -32.9%
8. CC1CCCCN1CCn1c(=S)[nH]c2cc3c(cc2c1=O)OCO3 (centres unmarked)  -29%
9. Cc1ccc(C23CC4CC(CC(C(=O)N5CCN(C)CC5)(C4)C2)C3)cc1  -28.7%
10. COc1cccc(OCc2cc(C(=O)N(C)C3CC(C)(C)NC(C)(C)C3)no2)c1  -25%
11. O=C(CC1CC2CCC1C2)N1CCN(S(=O)(=O)c2ccccc2[N+](=O)[O-])CC1 (centres unmarked)  -24.8%
12. O=C(O)CNC(=O)CCN1C(=O)c2ccccc2C1=O  -22.4%
13. CCc1nc2ccc(C(=O)NCc3ccco3)cc2nc1CC  -17.8%
14. CCOc1ccc(NC(=O)c2c(OC)cccc2OC)cc1  -16.7%
15. Cc1ccc(NC(=O)CCC(=O)N/N=C/c2ccc([N+](=O)[O-])o2)cc1C  -14.9%
16. COc1ccc(/C=C/C(=O)Nc2cc(=O)n(C)c(=O)n2C)cc1  -14.5%
17. CCC/C(=N/NC(=O)c1ccccc1Cl)c1ccccc1  -13.1%
18. CCCN1C(=O)c2cc(C(=O)Nc3ccc(OC)cc3OC)ccc2C1Nc1ccc(OC)cc1OC (centres unmarked)  -12.5%
19. CCC(=O)OCCNc1cc(Sc2nccn2C)c2nonc2c1[N+](=O)[O-]  -12.4%
20. CCc1ccc(N(CC(=O)NCC2CCCO2)C(=O)CCC(=O)Nc2nccs2)cc1 (centres unmarked)  -8.85%
21. Cc1ccccc1-n1c(C)nnc1SCc1nc2ccccc2s1  -8.28%
22. Nc1nc(SCc2ccccc2Cl)nc2nc3c(cc12)CCCC3  -6.77%
23. O=C(Nc1nc(-c2ccccn2)cs1)C1CCCC1  -6.58%
24. COc1ccc(NC(=O)CCCC2CCCCC2)cc1S(=O)(=O)N1CCCCC1  -6.47%
25. Cc1ccccc1NC(=O)Cc1nc(COC(=O)COc2ccc(C(C)(C)C)cc2)cs1  -5.64%
26. C=CCN1C=C2C(=O)C(C)(OC(=O)CC)C(=O)C=C2C=C1CCCC (centres unmarked)  -5.39%
27. COc1cc(OC)cc(C(=O)Nc2ccccc2C(=O)N2CCCC2)c1  -5.26%
28. O=C(CN1CCN(c2ccccn2)CC1)Nc1ccc(F)cc1F  -5.02%
29. CCOC(=O)CSC1=C(C#N)C(c2ccc(F)cc2)C(C(C)=O)=C(C)N1 (centres unmarked)  -3.72%
30. COC(=O)c1sccc1NC(=O)CN(C)NS(=O)(=O)c1ccc(F)cc1  -3.4%
31. Cc1ccc(NC(=O)c2c(C)noc2-c2snnc2C)cc1  -3.39%
32. Cc1ccc(-c2nn(-c3ccccc3)cc2/C=N/n2c(-c3ccncc3)n[nH]c2=S)cc1  -2.75%
33. O=C1NC(c2ccccc2Cl)Nc2ccccc21 (centres unmarked)  -1.87%
34. CC(C)(C)C1CCC(=NNC(=O)C(=O)NCc2cccnc2)CC1 (centres unmarked)  -1.21%
35. O=C(CS(=O)(=O)c1ccccc1)N1CCCCC1  -0.275%
36. COC(=O)c1cc2c(s1)-c1ccccc1OC2  0.157%
37. COc1ccc(C)cc1S(=O)(=O)N(CC(=O)Nc1ccc2c(c1)OCCO2)Cc1ccccc1  0.77%
38. CC(C)(C)n1nnnc1C(c1ccccn1)N1CCN(C(c2ccccc2)c2ccccc2)CC1 (centres unmarked)  1.69%
39. CN(C)S(=O)(=O)c1ccc(Cl)c(NC(=O)COC(=O)CCSc2ccccc2)c1  1.82%
40. Cc1cc(NC(=O)CSc2nc(C(C)C)nc3sc4c(c23)CCC(C)C4)no1 (centres unmarked)  2.06%
41. O=C(Cn1c(=O)sc2ccccc21)Nc1nc2c(s1)CCCC2  2.19%
42. CC(=O)N1CCN=C1SCc1cccc(C)c1  2.5%
43. COc1ccc([N+](=O)[O-])cc1-c1[nH]c(-c2ccc(C(=O)O)cc2)nc1-c1ccccc1  3.16%
44. Cc1ccc2[nH]c(=O)c3cc(C(=O)NCCC(C)C)sc3c2c1  3.64%
45. O=C(O)Cn1c(-c2cscn2)nc2ccccc21  3.99%
46. COC(=O)c1ccc(CNC(=O)C2CCC(=O)N(C3CCCCCC3)C2)cc1 (centres unmarked)  4.17%
47. COc1ccc(NC(=O)c2cnc(SC)nc2)cc1  4.75%
48. Cn1cnnc1SCCC(=O)Nc1ccccc1  5.07%
49. CCC(=O)Nc1nnc(-c2ccc(OC)cc2)o1  5.1%
50. Cc1ccc(NC(=O)C(C)N2C(=O)c3ccccc3C2=O)c(C)c1 (centres unmarked)  5.19%
51. COc1cc(OC)cc(C(=O)Nc2nnc(-c3cccnc3)o2)c1  5.59%
52. CCOC(=O)COc1ccc2c3c(c(=O)oc2c1)CCCC3  6.27%
53. COc1ccccc1CCc1nnc(CCC(=O)NC(C)Cn2nc(C)cc2C)o1 (centres unmarked)  6.48%
54. Cc1ccc2nc(N3CCN(C(=O)CCC(=O)O)CC3)nc(-c3ccccc3)c2c1  6.74%
55. Cc1ccc(Nc2ncnc3c2cnn3C)c(C)c1  7.14%
56. COc1ccc2c(=O)cc(C(F)(F)C(F)(F)F)oc2c1  7.5%
57. O=C(O)c1ccc(-c2ccccc2C(F)(F)F)o1  7.73%
58. O=C(N/N=C/c1cccs1)c1cccnc1  7.99%
59. CCCN(CCC)CCNC(=O)CN1C(=O)COc2ccc(S(=O)(=O)N3CCOCC3)cc21  8%
60. CC(NC(=O)CSc1nc(=O)cc(N)n1-c1ccccc1)c1ccccc1 (centres unmarked)  8.17%
61. Cc1cc(C)n2nc(SCC(=O)c3cccs3)nc2n1  8.53%
62. Cc1cc(C)c(C(N)=O)c(Nc2cccc3ccccc23)n1  8.73%
63. CCS(=O)(=O)c1nc(S(=O)(=O)c2ccc(Cl)cc2)c(NCCOC)s1  9.19%
64. COc1ccc(C(=O)N(C)Cc2ccccn2)cc1OC1CCN(C(C)C)CC1  9.45%
65. O=C(NCc1ccc2c(c1)OCO2)c1ccc2c(c1)N(Cc1c(F)cccc1Cl)C(=O)CS2  9.51%
66. Cn1c(=O)c2c(nc(SCC(=O)NC3CCCC3)n2C)n(C)c1=O  9.53%
67. O=C(Nc1ccc(Cl)cn1)c1ccccc1SCc1ccccc1  11%
68. CC1CCCN(C(=O)c2ccc3nc[nH]c3c2)C1 (centres unmarked)  11.5%
69. COC(=O)C1=C(CSc2nc3ccccc3s2)NC(=O)NC1c1ccc(F)cc1 (centres unmarked)  12.2%
70. CC(=O)c1cccc(NC(=O)CN2C(=O)NC(C)(c3ccc4c(c3)OCCCO4)C2=O)c1 (centres unmarked)  12.4%
71. CCC(=O)Nc1ccc(C(=O)NNC(=O)c2ccc([N+](=O)[O-])cc2)cc1  13%
72. COc1ccc(N(CC(=O)N/N=C(\C)c2ccccc2)S(=O)(=O)c2ccccc2)cc1  13.2%
73. Cn1cnnc1SCC(=O)Nc1ccc(OCc2ccccc2)cc1  13.2%
74. CC(=O)c1c[nH]c(C(=O)NCc2cccc(C(F)(F)F)c2)c1  13.3%
75. COc1cc(NC(=O)COC(=O)CCCC2=NS(=O)(=O)c3ccccc3N2)cc(OC)c1  14.4%
76. Cc1ccsc1-c1n[nH]c(=S)n1C1CCCCC1  14.6%
77. O=C(N/N=C/c1ccco1)c1cc(=O)[nH]c2ccccc12  15.6%
78. CCCn1nc(Oc2nc(N(C)C)nc(N(C)C)n2)ccc1=O  16.3%
79. Cc1cc(C)cc(NC(=O)c2ccc(NC(=O)c3ccco3)cc2)c1  17.5%
80. O=C(O)c1ccc(COc2ccccc2Cl)cc1  17.9%
81. N#CCC(=O)Nn1c(=S)[nH]c2ccccc2c1=O  18.5%
82. CC(C)(C)NC(=O)COC(=O)c1ccc(Cl)cc1O  18.8%
83. COc1cccc(-c2c(-c3cc(OC)cc(OC)c3)n(C)c3ccc(-c4ccc5[nH]ccc5c4)cc23)c1  20.1%
84. O=C(NC1(C(F)(F)F)C(=O)Nc2c1c(=O)[nH]c(=O)n2Cc1ccccc1)c1ccc(Cl)cc1Cl (centres unmarked)  21%
85. CN(C)/C=C/C(=O)c1ccn(S(=O)(=O)c2ccccc2)c1  23.6%
86. CCOC(=O)c1c(NC(=O)/C=C/C(=O)O)sc(C)c1-c1ccc(C(C)(C)C)cc1  24%
87. Cc1cc(C(=O)Nc2ncn[nH]2)ccc1[N+](=O)[O-]  26.3%
88. CCN(CC)C(=O)CSc1ncnc2c(-c3ccc(OC)cc3)nsc12  30%
89. CCn1ncc(NC(=S)Nc2ccc(OC)c(OC)c2)c1C(N)=O  39.1%
